Assay results: the supplement of paper PMC12217912
Some of the results follow. Sequences were assembled here from the parent chain. Values near 0.05 are background.

B1: TEV protease; numbered along this chain (parent)
chain: MGESLFKGPRDYNPISSSICHLTNESDGHTTSLYGIGFGPFIITNKHLFRRNNGTLVVQSLHGVFKVKDTTTLQQHLVDGRDMIIIRMPKDFPPFPQKLKFREPQREERICLVTTNFQTKSMSSMVSDTSCTFPSGDGIFWKHWIQTKDGQCGSPLVSTRDGFIVGIHSASNFTNTNNYFTSVPKNFMELLTNQEAQQWVSGWRLNADSVLWGGHKVFMVKPEEPFQPVKEATQL

Variants of: B1
Assay: raw area under fraction-flipped curve 0-4 h after induction (AUC4h, not background-subtracted), DNA-recorder readout of cleavage of the substrate (dimensionless); higher = more cleavage of the substrate by the protease variant
Details: temperature: 34 °C; time window: 0-4 h after rhamnose induction
Experimental: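 In vivo DNA recorder in E. coli TOP10(DE3) ΔrhaA at 34 °C. Each TEVp single-site mutant (parent TEVp 0) is paired with a single-site variant of the 7-mer TEVs (canonical ENLYFQ|S). The substrate sits between flexible linkers in a Bxb1-sfGFP-TEVs-SsrA fusion, so cleavage stabilises Bxb1 and speeds flipping of a recombination array, read by NGS. The value is the raw area under the fraction-flipped curve over 0-4 h after rhamnose induction (AUC4h), with ≥20 reads per time point. It is not background-subtracted; inactive controls average about 0.047.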
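Note: Bxb1 expression induced with 0.2% (w/v) L-rhamnose at OD600 near 0.5, cultures sampled hourly, flipped fraction per protease–substrate barcode pair counted by paired-end Illumina sequencing.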

Row | Variant | area with substrate ENLAFQS | area with substrate ENLDFQS | area with substrate ENLEFQS | area with substrate ENLFFQS | area with substrate ENLGFQS | area with substrate ENLIFQS | area with substrate ENLKFQS | area with substrate ENLLFQS | area with substrate ENLNFQS | area with substrate ENLPFQS | area with substrate ENLQFQS | area with substrate ENLRFQS | area with substrate ENLSFQS | area with substrate ENLVFQS | area with substrate ENLWFQS | area with substrate ENLHFQS | area with substrate ENLCFQS | area with substrate ENLMFQS | area with substrate ENLTFQS
1 | MGESLFKGPRDYNPISSSICHLTNESDGHTTWLYGIGFGPFIITNKHLFRRNNGTLVVQSLHGVFKVKDTTTLQQHLVDGRDMIIIRMPKDFPPFPQKLKFREPQREERICLVTTNFQTKSMSSMVSDTSCTFPSGDGIFWKHWIQTKDGQCGSPLVSTRDGFIVGIHSASNFTNTNNYFTSVPKNFMELLTNQEAQQWVSGWRLNADSVLWGGHKVFMVKPEEPFQPVKEATQL [S32W] | 0.0513 | 0.0569 | 0.0682 | 0.0794 | 0.0496 | 0.0721 | 0.0763 | 0.068 | 0.061 | 0.0834 | 0.0578 | 0.0744 | 0.0631 | 0.0905 | 0.0597 |  |  |  | 
2 | MGESLFKGPRDYNPISSSICHLTNESDGHTTSLYGIGFGPFIITNKHLFRRNNGTLVVQSLHGVFKVKDTTTLQQHLVDGRDMIIIRMPKDFPPFPQKLKFREPQREERICLVTTNFQTKSMSSMVSDTSCTFPSGDGIFWKHWIQTKDGQCGSPLVSTRDGFIVGIHSASNFTNTNNYFTSVPKNFMELLTNQEAQQWVSGWRLNADSVLWGGHKVFMVKPECPFQPVKEATQL [E224C] | 0.0662 | 0.0594 | 0.0588 | 0.0833 | 0.0705 | 0.0861 | 0.0674 | 0.0745 | 0.0633 | 0.0546 | 0.073 | 0.0624 | 0.0919 | 0.0799 | 0.0627 | 0.0755 |  |  | 
3 | MGESLFKGPRDYNPISSSICHLTNESDGHTTSLYGIGFGPFIITNKHLFRRNNGTLVVQSLHGVFKVKDTTTLQQHLVDGRDMIIIRMPKDFPPFPQKLKFREPQREERICLVTTNFQTKSMSSMVSDTSCTFPSGDGIFWKHWIQTKDGQCGSPLVSTRDGFIVGIHSASNFTNTNNYFTSVPKNFMELLTNQEAQQWVSGWRLNADSVLWGGHKVFMVKPEWPFQPVKEATQL [E224W] | 0.0758 | 0.0603 |  | 0.113 | 0.065 | 0.0773 | 0.0804 | 0.0687 | 0.0662 | 0.044 | 0.0769 | 0.0752 | 0.0615 | 0.0742 | 0.0612 | 0.0557 | 0.0834 | 0.0599 | 
4 | MGESLFKGPRDYNPISSSICHLTNESDGHTTSLYGIGFGPFIITNKHLFRRNNGTLVVQSLHGVFKVKDTTTLQQHLVDGRDMIIIRMPKDFPPFPQKLKFREPQREERICLVTTNFQTKSMSSMVSDTSCTFPSGDGIFWKHWIQTKDGQCGSPLVSTRDGFIVGIHSASNFTNTNNYFTSVPKNFMELLTNQEAQQWVSGWRLNADSVLWGGHFVFMVKPEEPFQPVKEATQL [K216F] | 0.0565 | 0.0625 |  | 0.0734 | 0.0598 | 0.0709 | 0.0614 | 0.0844 |  |  | 0.0532 | 0.0654 |  |  | 0.0659 | 0.058 | 0.0793 |  | 
5 | MGESLFKGPRDYNPISSSICHLTNESDGHTTSLYGIGFGPFIITNKHLFRRNNGTLVVQSLHGVFKVKDTTTLQQHLVDGRDMIIIRMPKDFPPFPQKLKFREPQREERICLVTTNFQTKSMSSMVSDTSCTFPSGDGIFWKHWIQTKDGQFGSPLVSTRDGFIVGIHSASNFTNTNNYFTSVPKNFMELLTNQEAQQWVSGWRLNADSVLWGGHKVFMVKPEEPFQPVKEATQL [C152F] | 0.0573 | 0.062 | 0.0751 | 0.0676 | 0.0507 | 0.061 | 0.0603 | 0.069 | 0.0755 | 0.0461 |  |  | 0.0584 | 0.0615 | 0.0652 | 0.0704 | 0.0279 |  | 0.057
6 | MGESLFKGPRDYNPISSSICHLTNESDGHTTSLYGIGFGPFIITNKHLFRRNNGTLVVQSLHGVFKVKDTTTLQQHLVDGNDMIIIRMPKDFPPFPQKLKFREPQREERICLVTTNFQTKSMSSMVSDTSCTFPSGDGIFWKHWIQTKDGQCGSPLVSTRDGFIVGIHSASNFTNTNNYFTSVPKNFMELLTNQEAQQWVSGWRLNADSVLWGGHKVFMVKPEEPFQPVKEATQL [R81N] | 0.0593 |  |  | 0.0639 | 0.106 |  | 0.0741 |  |  |  |  | 0.062 | 0.0506 | 0.0657 |  | 0.0617 | 0.0615 |  | 
7 | MGESLFKGPRDYNPISSSICHLTTESDGHTTSLYGIGFGPFIITNKHLFRRNNGTLVVQSLHGVFKVKDTTTLQQHLVDGRDMIIIRMPKDFPPFPQKLKFREPQREERICLVTTNFQTKSMSSMVSDTSCTFPSGDGIFWKHWIQTKDGQCGSPLVSTRDGFIVGIHSASNFTNTNNYFTSVPKNFMELLTNQEAQQWVSGWRLNADSVLWGGHKVFMVKPEEPFQPVKEATQL [N24T] | 0.0679 | 0.0525 |  | 0.0722 |  | 0.0755 | 0.0706 | 0.0836 | 0.0675 |  | 0.0638 | 0.0639 | 0.0571 | 0.0696 | 0.0619 | 0.0479 | 0.0549 | 0.0602 | 
8 | MGESLFKGPRDYNPISSSICHLTNESDGHTTSLYGIGFGPFIITNKHLFRRNNGTLVVQSLHGVFKVKDTTTLQQHLVDGRDMIIIRMPKDFPPFPQKLKFREPQREERICLVTTNFQTKSMSSMVSDTSCTFPSGDGIFWKHWIQTKDGQCGSPLVSTRDGFIVGIHSASNFTNTNNYFTSVPKNFMELLTNQEAQQWVSGWRLNADSVLWGGHKVFMVRPEEPFQPVKEATQL [K221R] | 0.0626 | 0.0667 | 0.0576 | 0.077 |  | 0.0802 | 0.0675 | 0.0836 |  | 0.0628 | 0.0752 | 0.0759 | 0.0616 | 0.0891 | 0.0691 | 0.0459 |  |  | 
9 | MGESLFKGPRDYNPISSSICHLTNESDGHTTSLYGIGFGPFIITNKHLFRRNNGTLVVQSLHGVFKVKDTTTLQQHLVDGRDMIIIRMPKDFPPFPQKLKFREPQREERICLVTTNFQTKSMSSMVSDTSCTFPSGDGIFWKHWIQTKDGQCGSPLVSTRDGFIVGIHSASNFTNTNNYFTSVNKNFMELLTNQEAQQWVSGWRLNADSVLWGGHKVFMVKPEEPFQPVKEATQL [P184N] | 0.0568 | 0.0599 |  | 0.0622 |  | 0.0572 | 0.0614 | 0.0606 | 0.0452 | 0.0797 | 0.0749 | 0.0639 | 0.0431 |  | 0.0436 | 0.0593 | 0.0679 |  | 
